The text below walks through data of patent US4204038A, “Process for preparing antibiotics MA 144-M1 and MA 144-M2” (Zaidan Hojin Biseibutsu Kagaku Kenkyu Kai, priority 1976, dated 1980).

≈ marks a conversion by molar mass, not a printed value.

Experiment [1] relates to L1210 cells. The experiment can be described thus: RNA synthesis in cultured L1210 cells. It is filed as cell-based, mice. Particulars: Mus musculus, 14C-precursor, read-out: ID50, RNA synthesis. As for the experimental part: (§1) In this experiment, L1210 cells were inoculated in RPMI 1640 medium (Nissui, Roswell Park Memorial Institute 1640) containing 10% calf serum and cultivated at 37° C. for 3 days in a CO2 incubator, and MA 144-M1, MA 144-M2 and ^14 C-precursor were added at various concentrations. Effects on the synthesis of protein, RNA and DNA were indicated by the 50% inhibition concentration (μg./ml.) as shown in the following table.

Experiment [2] relates to L1210 cells. Description: DNA synthesis in cultured L1210 cells. It is filed as cell-based, mice. Particulars: Mus musculus, 14C-precursor, read-out: ID50, DNA synthesis. The procedure: as §1

For the compound `CCC1(O)CC(OC2CC(N(C)C)C(OC3CC(O)C(OC4CCC(O)C(C)O4)C(C)O3)C(C)O2)c2c(cc3c(c2O)C(=O)c2c(O)ccc(O)c2C3=O)C1C(=O)OC` (centres unmarked) [MA 144-M2], the IC50 in the experiment with L1210 cells [1] was 0.5 µg/mL (≈ 0.602 µM); in the experiment with L1210 cells [2], 1 µg/mL (≈ 1.2 µM).
